From the supplement of paper PMC12217912
The list shows a part of the results. Sequences were assembled here from the parent chain. Inactive controls read about 0.05.

B1: TEV protease; numbered along this chain (parent)
chain: MGESLFKGPRDYNPISSSICHLTNESDGHTTSLYGIGFGPFIITNKHLFRRNNGTLVVQSLHGVFKVKDTTTLQQHLVDGRDMIIIRMPKDFPPFPQKLKFREPQREERICLVTTNFQTKSMSSMVSDTSCTFPSGDGIFWKHWIQTKDGQCGSPLVSTRDGFIVGIHSASNFTNTNNYFTSVPKNFMELLTNQEAQQWVSGWRLNADSVLWGGHKVFMVKPEEPFQPVKEATQL

Variants of: B1
Assay: raw area under fraction-flipped curve 0-4 h after induction (AUC4h, not background-subtracted), DNA-recorder readout of cleavage of the substrate (dimensionless); higher = more cleavage of the substrate by the protease variant
Settings: temperature: 34 °C; time window: 0-4 h after rhamnose induction
Experimental: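 In vivo DNA recorder in E. coli TOP10(DE3) ΔrhaA at 34 °C. Each TEVp single-site mutant (parent TEVp 0) is paired with a single-site variant of the 7-mer TEVs (canonical ENLYFQ|S). The substrate sits between flexible linkers in a Bxb1-sfGFP-TEVs-SsrA fusion, so cleavage stabilises Bxb1 and speeds flipping of a recombination array, read by NGS. The value is the raw area under the fraction-flipped curve over 0-4 h after rhamnose induction (AUC4h), with ≥20 reads per time point. It is not background-subtracted; inactive controls average about 0.047.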
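Also: Bxb1 expression induced with 0.2% (w/v) L-rhamnose at OD600 near 0.5, cultures sampled hourly, flipped fraction per protease–substrate barcode pair counted by paired-end Illumina sequencing.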

Row | Variant | area with substrate ENLYFQA | area with substrate ENLYFQC | area with substrate ENLYFQL | area with substrate ENLYFQN | area with substrate ENLYFQP | area with substrate ENLYFQR | area with substrate ENLYFQS | area with substrate ENLYFQW | area with substrate ENLYFQY | area with substrate ENLYFQK
1 | K7Y | 0.126 | 0.165 | 0.0134 | 0.0621 | 0.0402 | 0.0681 | 0.105 | 0.0695 | 0.0905 | –
2 | Q194A | 0.0944 | – | – | 0.0673 | 0.0538 | – | 0.112 | – | – | 0.0574
3 | Q194W | 0.0847 | – | 0.0746 | – | – | 0.043 | 0.1 | – | – | –
4 | R81V | 0.108 | 0.124 | 0.0507 | 0.0737 | 0.0664 | – | 0.098 | – | – | –
5 | G37C | 0.101 | – | – | – | – | 0.0558 | 0.106 | – | – | –
6 | K230A | 0.098 | – | – | – | – | 0.0581 | 0.0993 | 0.0711 | – | 0.061
7 | S158E | 0.0698 | 0.0782 | – | – | – | 0.0528 | 0.0799 | – | 0.0703 | –
8 | R50N | 0.1 | – | – | – | – | – | 0.109 | – | – | –
9 | G150A | 0.0529 | – | 0.0619 | – | – | – | 0.0606 | 0.0632 | 0.059 | –
10 | Q198S | 0.0681 | 0.0976 | – | – | 0.0426 | 0.0591 | 0.0999 | 0.0578 | 0.0897 | 0.0566
11 | I86C | 0.0553 | 0.096 | 0.0441 | 0.065 | – | – | 0.091 | – | 0.0731 | –
12 | F65P | 0.052 | 0.0524 | – | 0.0412 | 0.0412 | 0.0496 | 0.0493 | 0.0601 | 0.0367 | 0.0495
13 | F65Q | 0.0873 | 0.0836 | 0.0465 | – | – | – | 0.0906 | 0.0769 | – | –
14 | N186H | 0.0889 | – | – | – | – | – | 0.0959 | – | – | –
15 | L99W | 0.0733 | – | 0.0512 | – | – | – | 0.0902 | – | – | –
16 | T70F | 0.0652 | 0.0853 | – | 0.0586 | – | 0.0459 | 0.0794 | – | 0.0731 | –
17 | L33D | 0.0567 | 0.0707 | 0.0503 | – | – | – | 0.0624 | 0.0557 | 0.0498 | 0.0506
18 | F95N | 0.104 | 0.101 | – | – | 0.048 | 0.0548 | 0.088 | – | – | 0.0651
19 | S171Y | 0.0574 | 0.0549 | 0.0654 | 0.0238 | – | 0.0522 | 0.0616 | 0.0354 | – | –

Row | Variant | area with substrate ENLYFQA | area with substrate ENLYFQC | area with substrate ENLYFQL | area with substrate ENLYFQN | area with substrate ENLYFQP | area with substrate ENLYFQR | area with substrate ENLYFQS | area with substrate ENLYFQW | area with substrate ENLYFQY | area with substrate ENLYFQK
20 | V217L | 0.0834 | – | – | – | 0.0567 | – | 0.0918 | – | – | –
21 | H215K | 0.0753 | 0.0777 | 0.059 | 0.0376 | 0.0655 | 0.047 | 0.0764 | 0.0602 | 0.0447 | 0.0615
22 | P89V | 0.0926 | – | – | – | 0.041 | 0.0493 | 0.0776 | 0.0635 | 0.0624 | 0.0668
23 | F163N | 0.0995 | – | – | – | – | – | 0.0973 | – | – | –
24 | L205S | 0.0787 | – | – | – | – | 0.0469 | 0.0775 | – | 0.0613 | –
25 | D161G | 0.0972 | 0.09 | 0.0326 | 0.0653 | – | – | 0.0926 | 0.0586 | 0.0893 | 0.0694
26 | T159V | 0.0901 | 0.127 | – | – | 0.056 | 0.066 | 0.101 | – | – | 0.0526
27 | F226V | 0.103 | – | – | 0.121 | – | – | 0.114 | 0.0709 | – | –
28 | F187A | 0.0852 | – | 0.0504 | – | – | 0.0598 | 0.0868 | 0.0411 | 0.0543 | 0.0819
29 | A170I | 0.0595 | – | 0.0528 | – | – | – | 0.059 | – | – | 0.0488
30 | A170K | 0.0613 | 0.0591 | – | 0.0569 | – | 0.0618 | 0.0605 | 0.0461 | – | –
31 | V165L | 0.11 | – | 0.0634 | 0.0714 | 0.0387 | 0.0537 | 0.116 | 0.0767 | – | –
32 | I85A | 0.0606 | – | 0.0447 | 0.0668 | – | 0.0584 | 0.0684 | 0.0445 | – | –
33 | N177M | 0.114 | 0.127 | 0.0768 | 0.0881 | 0.0578 | – | 0.118 | 0.0632 | 0.101 | –
34 | N177Q | 0.0931 | – | – | 0.0653 | – | – | 0.123 | – | – | 0.0604
35 | G202I | 0.066 | – | 0.0336 | 0.0586 | – | – | 0.0621 | 0.0539 | – | 0.047
36 | T44M | 0.0608 | 0.059 | 0.052 | 0.0659 | – | 0.0582 | 0.0667 | 0.0566 | 0.0399 | –
37 | V58G | 0.192 | – | – | – | 0.0484 | – | 0.0557 | – | 0.0476 | –
38 | E231I | 0.122 | – | 0.0614 | – | 0.0665 | 0.0557 | 0.0993 | – | 0.059 | 0.049

Same assay, conditions: temperature: 34 °C; time window: 0-4 h after rhamnose induction

Row | Variant | area with substrate ENLYFQT | area with substrate ENLYFQV | area with substrate ENLYFQD | area with substrate ENLYFQE | area with substrate ENLYFQI | area with substrate ENLYFQQ | area with substrate ENLYFQF | area with substrate ENLYFQM | area with substrate ENLYFQH | area with substrate ENLYFQG
39 | Q194A | 0.111 | 0.0645 | – | – | – | – | – | – | – | –
40 | Q194W | 0.0581 | – | 0.0555 | 0.0634 | 0.0719 | 0.0374 | – | – | – | –
41 | R81V | – | – | – | – | – | 0.062 | 0.0705 | 0.0812 | – | –
42 | G37C | – | – | – | – | 0.0341 | – | – | 0.0811 | – | –
43 | K230A | 0.0608 | – | – | – | – | – | 0.0744 | – | 0.0849 | –
44 | S158E | – | – | – | – | 0.0321 | – | – | – | – | 0.0604
45 | R50N | 0.0955 | – | – | – | 0.0615 | 0.0773 | – | – | – | –
46 | G150A | – | 0.0638 | 0.0571 | – | – | – | – | – | – | 0.0684
47 | Q198S | 0.0677 | – | 0.0729 | 0.0651 | 0.0529 | 0.063 | – | 0.0854 | 0.0732 | –
48 | I86C | 0.0624 | – | – | 0.0645 | 0.0533 | – | 0.0722 | 0.075 | 0.0608 | 0.0694
49 | F65P | 0.0462 | 0.0465 | – | – | – | – | – | 0.0486 | 0.0532 | 0.0572
50 | F65Q | – | – | 0.0632 | – | 0.0488 | – | – | 0.0822 | 0.0742 | –
51 | L99W | 0.0754 | 0.0495 | 0.0507 | – | 0.0398 | – | – | – | 0.0716 | –
52 | T70F | – | – | – | – | – | – | – | 0.0772 | – | 0.0762
53 | L33D | – | – | – | 0.0579 | 0.0592 | 0.0359 | 0.0697 | 0.0576 | 0.0609 | 0.0563
54 | F95N | 0.0252 | – | – | – | – | – | – | – | – | –
55 | S171Y | 0.0594 | – | – | – | – | – | – | 0.0541 | 0.0773 | 0.0659
56 | V217L | – | – | – | – | – | 0.0547 | – | – | – | –

Row | Variant | area with substrate ENLYFQT | area with substrate ENLYFQV | area with substrate ENLYFQD | area with substrate ENLYFQE | area with substrate ENLYFQI | area with substrate ENLYFQQ | area with substrate ENLYFQF | area with substrate ENLYFQM | area with substrate ENLYFQH | area with substrate ENLYFQG
57 | H215K | 0.0696 | – | – | – | – | – | – | – | – | –
58 | P89V | 0.0475 | – | – | – | 0.0579 | – | – | 0.0603 | 0.0608 | –
59 | F163N | – | 0.0516 | – | – | – | – | 0.0881 | – | 0.0772 | –
60 | L205S | – | – | 0.0664 | – | – | – | – | – | – | –
61 | D161G | 0.0774 | – | – | – | 0.0524 | – | 0.0537 | 0.0715 | – | 0.0906
62 | T159V | – | – | 0.0725 | – | – | – | – | 0.108 | – | –
63 | F226V | 0.0825 | – | – | – | – | – | – | 0.0867 | 0.0638 | –
64 | F187A | 0.064 | – | 0.0628 | – | 0.037 | – | – | – | 0.0626 | –
65 | A170I | 0.0673 | – | – | – | – | – | – | – | – | –
66 | A170K | – | – | – | – | 0.0672 | – | – | – | 0.0545 | –
67 | V165L | – | – | – | – | 0.0114 | – | 0.0508 | – | – | –
68 | I85A | – | – | – | – | 0.0558 | – | – | 0.0506 | 0.0696 | –
69 | N177M | – | – | 0.0836 | – | 0.0607 | – | – | 0.0851 | 0.0886 | 0.156
70 | N177Q | 0.0544 | – | – | – | – | – | – | – | – | 0.0985
71 | G202I | – | 0.0312 | – | – | – | – | – | – | – | –
72 | T44M | 0.0527 | 0.0525 | 0.064 | – | 0.0923 | – | 0.071 | 0.0566 | 0.0543 | 0.0715
73 | V58G | – | 0.0426 | – | – | 0.0254 | – | 0.0511 | 0.0613 | – | –
74 | E231I | 0.0606 | 0.0754 | 0.0708 | – | 0.0517 | – | – | 0.087 | – | 0.0724
